# Measurements taken from the supplement of paper PMC8728848.
# Some of the results follow.
# How the values were obtained:
# Assay in all cases: glycan array binding signal (z-score within array); higher = stronger binding
# Details in all cases: glycan notation: IUPAC condensed, linker removed
# Neu5Ac(a2-8)Neu5Ac = target: Neu5Ac(a2-8)Neu5Ac
# In short: (§1)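 Columns mapping to the same glycan were averaged after glycan names were converted to IUPAC-condensed notation. The data come from 3228 arrays in the Consortium for Functional Glycomics database, limited to those with an available protein sequence. Binding is reported as a within-array Z-score averaged across arrays of one protein sequence and across linkers.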
# [1] = target: Neu5Ac(a2-8)Neu5Ac(a2-3)Gal(b1-3)GalNAc(b1-4)[Neu5Ac(a2-3)]Gal(b1-4)Glc
# In short: as §1
# [2] = target: Neu5Ac(a2-8)Neu5Ac(a2-3)Gal(b1-3)GalNAc(b1-4)[Neu5Ac(a2-8)Neu5Ac(a2-3)]Gal(b1-4)Glc
# In short: as §1
# [3] = target: Neu5Ac(a2-8)Neu5Ac(a2-3)Gal(b1-4)Glc
# In short: as §1
# [4] = target: Neu5Ac(a2-8)Neu5Ac(a2-3)Gal(b1-4)GlcNAc
# In short: as §1
# [5] = target: Neu5Ac(a2-8)Neu5Ac(a2-3)[Gal(b1-3)GalNAc(b1-4)]Gal(b1-4)Glc
# In short: as §1
# [6] = target: Neu5Ac(a2-8)Neu5Ac(a2-3)[GalNAc(b1-4)]Gal(b1-4)Glc
# In short: as §1
# [7] = target: Neu5Ac(a2-8)Neu5Ac(a2-8)Neu5Ac
# In short: as §1
# [8] = target: Neu5Ac(a2-8)Neu5Ac(a2-8)Neu5Ac(a2-3)Gal(b1-4)Glc
# In short: as §1
# [9] = target: Neu5Ac(a2-8)Neu5Ac(a2-8)Neu5Ac(a2-3)[Gal(b1-3)GalNAc(b1-4)]Gal(b1-4)Glc
# In short: as §1
# [10] = target: Neu5Ac(a2-8)Neu5Ac(a2-8)Neu5Ac(a2-3)[GalNAc(b1-4)]Gal(b1-4)Glc
# In short: as §1
# [11] = target: Neu5Ac(a2-8)Neu5Ac(a2-8)Neu5Ac(a2-8)Neu5Ac(a2-3)[GalNAc(b1-4)]Gal(b1-4)Glc
# In short: as §1
# [12] = target: Neu5Ac(a2-8)Neu5Gc(a2-3)Gal(b1-4)GlcNAc
# In short: as §1
# [13] = target: Neu5Ac(b2-6)Gal(b1-4)GlcNAc
# In short: as §1
# Neu5Ac(b2-6)GalNAc = target: Neu5Ac(b2-6)GalNAc
# In short: as §1
# [14] = target: Neu5Ac9Ac(a2-3)Gal(b1-3)GlcNAc
# In short: as §1
# [15] = target: Neu5Ac9Ac(a2-3)Gal(b1-4)GlcNAc
# In short: as §1
# [16] = target: Neu5Ac9Ac(a2-6)Gal(b1-4)GlcNAc
# In short: as §1
# [17] = target: Neu5Gc(a2-3)Gal(b1-3)GlcNAc
# In short: as §1
# [18] = target: Neu5Gc(a2-3)Gal(b1-3)[Fuc(a1-4)]GlcNAc
# In short: as §1
# Neu5Gc(a2-3)Gal(b1-4)Glc = target: Neu5Gc(a2-3)Gal(b1-4)Glc
# In short: as §1
# [19] = target: Neu5Gc(a2-3)Gal(b1-4)GlcNAc
# In short: as §1
# [20] = target: Neu5Gc(a2-3)Gal(b1-4)GlcNAc(b1-3)Gal(b1-4)GlcNAc(b1-2)Man(a1-3)[Neu5Gc(a2-3)Gal(b1-4)GlcNAc(b1-3)Gal(b1-4)GlcNAc(b1-2)Man(a1-6)]Man(b1-4)GlcNAc(b1-4)GlcNAc
# In short: as §1
# [21] = target: Neu5Gc(a2-3)Gal(b1-4)[Fuc(a1-3)]GlcNAc
# In short: as §1
# [22] = target: Neu5Gc(a2-6)Gal(b1-4)GlcNAc
# In short: as §1
# Neu5Gc(a2-6)GalNAc = target: Neu5Gc(a2-6)GalNAc
# In short: as §1
# [23] = target: Neu5Gc(a2-8)Neu5Ac(a2-3)Gal(b1-4)GlcNAc
# In short: as §1
# [24] = target: Neu5Gc(a2-8)Neu5Gc(a2-3)Gal(b1-4)GlcNAc
# In short: as §1
# [25] = target: Neu5Gc(a2-8)Neu5Gc(a2-3)Gal(b1-4)GlcNAc(b1-3)Gal(b1-4)GlcNAc
# In short: as §1
# [26] = target: Neu5Gc(a2-8)Neu5Gc(a2-6)Gal(b1-4)GlcNAc
# In short: as §1
# [27] = target: Neu5Gc(b2-6)Gal(b1-4)GlcNAc
# In short: as §1
binder,measurement,setting,value
PX14343A-bvu-539-29-539 (Bacteroides vulgatus) (protein) DSLTESSSNTFWQTPDDALMALASCYDALQSNQLYNSDQYSLGPLYMDCISDNGGHFNWSGWMEGYDMAMGIHTPSSSIIGSYWKDCYEVISRCNVLIANIDRVDMDASQKAIYQAEAKTIRALMYINLTMTYQDVPFLTAPLTIDEAECEKTDRAAIVAHVMTDLQDAAEVLPQNASSRGHITKGAALSLLGRVALYNEKWDDAIAAYKQVQGLGYSLDPSYAKLFTQSGETSPEIIFAVRYEGPGMSEGAAFNAHWNTPLEAMNGTIDLADAYYCKDGKPTTDTKIAELNGGGGLDVSKPNPAHFENRDPRLYSTLFVPGMLWNGKGGIDTSASNPYANVYGGAAASLSTVYVYKYFDPTDTSNSWDNGQDFYVVRYAEVLLSLAEAMVQKGGYVYSDVTALVNEVRQRADVNMPTVEEVEGTSLSKDELLEVIKHERRVELAFEGLRLFDLYRWKELDKAVANIENERTMYGLAYEARKFNGERDYVWPLPTAELDTNKKLVQHDLWK,glycan array binding signal (z-score),Neu5Ac(a2-8)Neu5Ac,-0.255
same,glycan array binding signal (z-score),[1],-0.102
same,glycan array binding signal (z-score),[2],-0.41
same,glycan array binding signal (z-score),[3],-0.249
same,glycan array binding signal (z-score),[4],-0.33
same,glycan array binding signal (z-score),[5],-0.42
same,glycan array binding signal (z-score),[6],-0.116
same,glycan array binding signal (z-score),[7],-0.272
same,glycan array binding signal (z-score),[8],-0.405
same,glycan array binding signal (z-score),[9],-0.162
same,glycan array binding signal (z-score),[10],-0.47
same,glycan array binding signal (z-score),[11],-0.376
same,glycan array binding signal (z-score),[12],4.74
same,glycan array binding signal (z-score),[13],-0.266
same,glycan array binding signal (z-score),Neu5Ac(b2-6)GalNAc,-0.143
same,glycan array binding signal (z-score),[14],-0.424
same,glycan array binding signal (z-score),[15],-0.421
same,glycan array binding signal (z-score),[16],0.185
same,glycan array binding signal (z-score),[17],-0.385
same,glycan array binding signal (z-score),[18],-0.088
same,glycan array binding signal (z-score),Neu5Gc(a2-3)Gal(b1-4)Glc,-0.301
same,glycan array binding signal (z-score),[19],-0.254
same,glycan array binding signal (z-score),[20],-0.202
same,glycan array binding signal (z-score),[21],-0.404
same,glycan array binding signal (z-score),[22],-0.155
same,glycan array binding signal (z-score),Neu5Gc(a2-6)GalNAc,-0.376
same,glycan array binding signal (z-score),[23],-0.348
same,glycan array binding signal (z-score),[24],-0.184
same,glycan array binding signal (z-score),[25],-0.392
same,glycan array binding signal (z-score),[26],0.192
same,glycan array binding signal (z-score),[27],-0.331
